Test results from article PMC4336329 (PLoS ONE, 2015).
In all, about 310,000 compounds went through this assay and about 2,200 (0.71%) showed an effect of 50% or more. The effect is printed as a negative number. The list shows a part of the results.

target: human ether-à-go-go-related gene (hERG) potassium channel (human, UniProt Q12809); experiment: primary screen, population patch clamp on CHO cells stably expressing hERG
Sequence (Q12809 whole entry, looked up): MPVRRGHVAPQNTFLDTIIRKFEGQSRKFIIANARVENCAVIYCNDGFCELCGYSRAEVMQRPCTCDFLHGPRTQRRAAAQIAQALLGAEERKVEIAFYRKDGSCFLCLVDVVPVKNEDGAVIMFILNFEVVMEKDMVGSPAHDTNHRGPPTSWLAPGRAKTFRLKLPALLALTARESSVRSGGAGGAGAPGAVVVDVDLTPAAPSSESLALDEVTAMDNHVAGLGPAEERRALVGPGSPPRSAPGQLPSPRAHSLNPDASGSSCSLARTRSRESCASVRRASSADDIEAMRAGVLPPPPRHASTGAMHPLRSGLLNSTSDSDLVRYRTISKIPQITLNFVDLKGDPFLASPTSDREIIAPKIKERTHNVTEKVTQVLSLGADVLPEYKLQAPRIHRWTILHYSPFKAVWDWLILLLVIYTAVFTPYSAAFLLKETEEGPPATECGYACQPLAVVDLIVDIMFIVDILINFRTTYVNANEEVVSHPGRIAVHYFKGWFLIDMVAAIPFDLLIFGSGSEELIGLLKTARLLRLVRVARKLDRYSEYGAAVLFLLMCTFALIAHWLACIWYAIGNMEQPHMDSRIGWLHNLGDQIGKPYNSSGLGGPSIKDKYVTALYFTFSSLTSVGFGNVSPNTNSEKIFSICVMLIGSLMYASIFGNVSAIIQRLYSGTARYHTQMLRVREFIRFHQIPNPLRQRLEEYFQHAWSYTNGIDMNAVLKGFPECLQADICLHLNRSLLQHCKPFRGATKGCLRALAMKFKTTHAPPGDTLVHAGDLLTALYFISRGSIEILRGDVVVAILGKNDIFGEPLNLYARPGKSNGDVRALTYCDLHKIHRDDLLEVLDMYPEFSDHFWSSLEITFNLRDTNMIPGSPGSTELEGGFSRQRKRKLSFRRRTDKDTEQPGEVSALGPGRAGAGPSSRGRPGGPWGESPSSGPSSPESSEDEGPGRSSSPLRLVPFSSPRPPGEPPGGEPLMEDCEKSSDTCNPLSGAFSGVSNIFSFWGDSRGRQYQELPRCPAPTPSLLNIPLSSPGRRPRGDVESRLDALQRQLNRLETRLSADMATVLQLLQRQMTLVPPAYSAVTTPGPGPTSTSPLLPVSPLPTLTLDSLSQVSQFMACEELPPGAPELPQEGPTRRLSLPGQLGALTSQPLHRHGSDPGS

| Compound | hERG current change (%, negative = inhibition) at 1uM [%] |
| --- | --- |
| COc1ccc(NC(=O)CN2C(=O)NC3(CCCC3)C2=O)c(OC)c1 | 10.2 |
| COc1ccc(Cl)cc1NC(=O)c1nnn(CC(=O)Nc2ccc(C)c(C)c2)c1N | 14.9 |
| COc1ccc(OC)c(CC(NC(C)=O)C(=O)NC2CCN(c3nnnn3-c3ccccc3)CC2)c1 (stereo not drawn) | 2.82 |
| CCC(CC)NC(=O)c1cc(OC)c(OC)cc1[N+](=O)[O-] | 14.8 |
| O=C(Nc1nc2c(s1)CCCC2)c1cc(-c2ccncc2)nc2ccccc12 | 2.28 |
| Cc1cccc2cc(COC(=O)c3ccco3)c(=O)[nH]c12 | 5.33 |
| CC1(C)CC(=O)c2sc(NS(=O)(=O)c3ccc(Br)cc3)nc2C1 | 13.3 |
| Cc1ccnc(SCC(=O)Nc2cc(C)on2)n1 | 17.3 |
| CCOc1cccc(C(=O)N2CCCN(C)CC2)c1 | 1.7 |
| CCOC(=O)C1=C(C)NC(C)=C(C(=O)OCC)C1c1ccccn1 | 15.6 |
| O=C(Nc1ccc(Nc2ccccc2)cc1)c1ccco1 | 3.39 |
| COc1cc2[nH]c3c(c2cc1OC)CCN1CCCC[C@@H]31 | 15 |
| CCCCCC(=O)NC(=S)Nc1cccc(-c2nc3ncccc3o2)c1 | -0.146 |
| Cc1nc2cc(NS(=O)(=O)c3ccccc3)ccc2n1C | 13.2 |
| COC(=O)c1c(N(S(C)(=O)=O)S(C)(=O)=O)sc2c1CCN(c1ncc(C(F)(F)F)cc1Cl)C2 | 8.21 |
| COc1ccc([C@H]2CC(=O)C=C(c3cccc4c3Oc3ccccc3S4)C2)cc1OC | 1.6 |
| COC(=O)CCC(=O)OC1(C)C(=O)C=C2C=C(C3CC3)N(CCc3ccccn3)C=C2C1=O (stereo not drawn) | 7.19 |
| C=C(C)c1ccc(C(C)(C)NC(=O)N(Cc2ccccc2)Cc2ccco2)cc1 | -6.17 |
| O=C(NCc1ccccc1)C(c1ccco1)N(C(=O)c1ccccn1)c1ccccc1 (stereo not drawn) | 8.3 |
| COC(=O)CC1C(=O)NCCN1C(=O)c1cc(OC)c(OC)cc1OC (stereo not drawn) | 16.3 |
| CCC(C(=O)Nc1nc(C)c(C(=O)OC)s1)c1ccccc1 (stereo not drawn) | 1.45 |
| O=C(NCc1ccccc1)c1onc(CSc2ccc(Cl)cc2)c1C(=O)NCc1ccccc1 | 10.1 |

| Compound | hERG current change (%, negative = inhibition) at 1uM [%] |
| --- | --- |
| COc1ccc(CNCC(=O)N2CCC3(CC2)OCCO3)cc1.O=C(O)C(=O)O | 1.35 |
| Cc1cc(C)c(NC(=O)CCCC(=O)O)c(Cl)c1 | 7.12 |
| C#CCOC(=O)Nc1cccn(Cc2c(Cl)cccc2Cl)c1=O | 4.96 |
| CCOc1ccccc1N(CC(=O)NCCSCc1ccco1)S(=O)(=O)c1ccccc1 | 9.02 |
| COC(=O)c1ccc(CO/N=C2\CCCc3nonc32)cc1 | -3.26 |
| CCc1nnc(NC(=O)CCC(=O)N2CCCC2)s1 | 13.4 |
| Cc1ccc(CNC(=O)CN(C)C2=NS(=O)(=O)c3ccccc32)cc1 | 0.964 |
| c1cc(-c2nsc(-c3ccncc3)n2)ccn1 | 4.82 |
| Cc1ccc(N2C(=O)CCC2(C(N)=O)c2ccccc2)cc1 (stereo not drawn) | 0.771 |
| CCCCn1nc(C(=O)Nc2nc3c(s2)CCCC3)c2ccccc2c1=O | 0.207 |
| Cc1cnc(C(=O)Oc2c(C)ccc(C)c2C)cn1 | 6.11 |
| COc1cc(/C=C/C(=O)OCC(=O)Nc2c(C)n(C)n(-c3ccccc3)c2=O)ccc1O | 13.5 |
| Cc1nn(-c2ccc(F)cc2)c(C)c1NS(=O)(=O)c1ccc2ccccc2c1 | 19.2 |
| O=C(COC(=O)CC(c1ccccc1)c1ccccc1)Nc1ccc(F)c(F)c1 | 1.93 |
| CC(=O)Nc1ccc(S(=O)(=O)N2CCN=C2SCc2ccc(F)cc2)cc1 | 3.33 |
| CSC1=NCCN1S(=O)(=O)c1ccc2ccccc2c1 | -17.2 |
| O=C(CCSCCC(=O)Nc1c(F)c(F)c(F)c(F)c1F)Nc1c(F)c(F)c(F)c(F)c1F | 5.63 |
| C/C(CCc1ccc2c(c1)OCO2)=N\NC(=O)c1ccccc1 | 3.54 |
| CC1CN2c3ccc([N+](=O)[O-])cc3CC3(C(=O)N(C)C(=O)N(C)C3=O)C2C(C)O1 (stereo not drawn) | 14.9 |
| COc1ccc(C(=O)O/N=C(\N)Cc2ccc([N+](=O)[O-])cc2)c(OC)c1 | -9.08 |
| Br.COc1ccc(/C=N/Nc2nc(C(=O)O)cs2)cc1 | 17.1 |
| C/C(=N\NC(=O)C(N)=O)c1cccc(C(F)(F)F)c1 | 26.3 |

| Compound | hERG current change (%, negative = inhibition) at 1uM [%] |
| --- | --- |
| COc1ccc(CN2CCN(CC=C(C)C)C(CCO)C2)cc1Cn1cncn1 (stereo not drawn) | 4.07 |
| COc1ccc(Cn2ccnc2SCC(=O)Nc2ccccc2OC)cc1 | 4.8 |
| Cc1ccc(OC(=S)Nc2ccc(O)cc2)cc1 | -5.64 |
| CCCCN1C=CC(=C2C(=O)c3ccccc3C2=O)C=C1 | 19.5 |
| CCOc1ccc2nc(N(Cc3ccccc3)C(=O)CCNC(C)=O)sc2c1 | -3.35 |
| O=C(CSc1nc(-c2ccco2)cc(C(F)(F)F)n1)NCCN1CCOCC1 | 6.25 |
| Nc1nonc1-n1nnc(C(=O)N/N=C/c2ccccc2Cl)c1CSc1ccccc1 | 13.5 |
| Cc1cc(C)c(COc2ccc(/C=N/n3c(C)n[nH]c3=S)cc2)c(C)c1 | 0.763 |
| O=C(O)c1ccc(OCCCCCCOC2CCCCO2)cc1 (stereo not drawn) | 12.1 |
| CC(C)N(C(=O)c1ccc(-c2ccccc2F)cc1)C(C)C | 15.1 |
| Cc1cc2c(cc1C)N(CC(=O)N1CCCC1)C(=O)CC(c1ccccc1)=N2 | 1.81 |
| Cc1nn(-c2ccccc2)c2sc(-c3nnc(SCC(=O)O)o3)cc12 | 16 |
| O=C(c1ccccc1)N1CCN=C1SCc1ccc([N+](=O)[O-])cc1 | -20.5 |
| Clc1ccc(CN2CCC(c3nc4ccc(Cl)cc4[nH]3)CC2)cc1 | -78.7 |
| COc1cc(C(=O)N2CCC(C(=O)Nc3cccc(C(C)=O)c3)CC2)cc(OC)c1OC | 0.0653 |
| OCCC1CN(Cc2cnc(N3CCOCC3)s2)CCN1C1CCCC1 (stereo not drawn) | 16.8 |
| O=C(O)C1=C[C@H](c2ccc(C(F)(F)F)cc2)C[C@H](OCCCCO)O1 | 15.4 |
| COc1ccc(NC(=O)C2CCCN(c3ncnc4onc(-c5ccc(F)cc5)c34)C2)cc1 (stereo not drawn) | 9.27 |
| O=c1[nH][nH]c(-c2ccccc2O)c1C(C[N+](=O)[O-])c1ccc(Br)cc1 (stereo not drawn) | 18.7 |
| CC1CN=C(N(C(=O)Nc2ccccc2)C(C)c2ccccc2)S1 (stereo not drawn) | 13.8 |
| COc1ccc(C(=O)COC(=O)CCNS(=O)(=O)c2ccccc2)cc1Br | 17.1 |
| CCCc1ccc(OCC(=O)O)cc1 | 5.55 |

| Compound | hERG current change (%, negative = inhibition) at 1uM [%] |
| --- | --- |
| O=C(OCCC1Oc2cccnc2NC1=O)c1ccc(Cl)cc1 (stereo not drawn) | 10.4 |
| O=c1[nH]c2cc([N+](=O)[O-])c([N+](=O)[O-])cc2[nH]c1=O | 1.24 |
| CC(=O)c1ccc(S(=O)(=O)N2CCN(S(=O)(=O)c3ccccc3C(F)(F)F)CC2)cc1 | 14.5 |
| O=C(c1cccnc1)N1N=C2CCCCCC2C1(O)C(F)(F)F (stereo not drawn) | 8.53 |
| CSc1ccccc1NC(=O)CN(C)C(=O)C1CCN(C(=O)Nc2ccccc2)CC1 | 8.26 |
| Cc1ccc(OCc2nnc(SCc3cc(=O)[nH]c4ccccc34)o2)cc1 | 8.27 |
| Cc1ccc(C(=O)N/C(=C\c2ccccc2)C(=O)NCCN2CCOCC2)cc1 | -38.7 |
| O=C(Nc1nc2ccc(Oc3ccccc3)cc2s1)c1cc([N+](=O)[O-])ccc1N1CCOCC1 | 5.63 |
| Cl.O=C(c1ccco1)N1CCN(C(c2ccccc2Cl)c2nnnn2Cc2ccco2)CC1 (stereo not drawn) | -27 |
| COc1ccc(N/C=C(\C(C)=O)c2ccc(OC)c(OC)c2)cc1OC | 13.4 |
| CCOC(=O)c1cc(CC)sc1NC(=O)COC(=O)c1cc[n+]([O-])cc1 | 9.84 |
| O=C1CC(c2cccc(Cl)c2)c2cc3c(cc2N1)CCC3 (stereo not drawn) | 18.3 |
| COc1ccc(-c2nc(C#N)c(N3CCCCC3)o2)cc1 | 9.1 |
| CCCCOC(=O)c1cc(=O)[nH]c(=O)[nH]1 | 14 |
| COc1ccccc1-c1nc(SCC(=O)O)n[nH]1 | 3.9 |
| O=C(Nc1ccc2c(c1)C(=O)N(C1CCCCC1)C2=O)C1CCCO1 (stereo not drawn) | 1.06 |
| Cc1cc(N2CCN(c3nc(-c4ccc([N+](=O)[O-])cc4)cs3)CC2)c2ccccc2n1 | 2.53 |
| CCc1nc(C)c(-c2ccccc2)c(=O)[nH]1 | 15.1 |
| O=C1CC(N2CCCc3ccccc32)C(=O)N1c1ccccc1Cl (stereo not drawn) | 7.45 |
| COC(=O)C1C/C(=N\NS(=O)(=O)c2ccc(C)cc2)c2ccsc2C1 (stereo not drawn) | 7.94 |
| COc1ccc(C(=O)COC(=O)CCn2nnc(-c3cccc(O)c3OC)n2)cc1 | 11.6 |
